Laboratory results reported in PubChem BioAssay AID463173 (ICCB-Longwood Screening Facility, Harvard Medical School, 2010).
In all, about 52,000 compounds went through this assay and about 1,700 (3.3%) were called active. No stated cut-off is given here; in the data, active means survival mostly below about 52% (no sharp cut-off); inactive means mostly above about 56%. Some of the results follow.

Test system: Wild type
Assay: S. aureus survival, RN4220 and DeltatarO strains – OD600, teichoic acid synthesis inhibitors, primary screen (AID 463173)
Settings: S. aureus RN4220 wild type/DeltatarO growth, OD600, 18 h, hits give low values, screened at 18.75 µg/mL (by protocol)

Structure (SMILES)	survival
COc1cccc2c1cc1c(=O)n(CC(=O)O)nc(C)n12	inactive: 87%
CC(=O)Nc1ccc(S(=O)(=O)NC2(C(F)(F)F)NC(=O)N(c3ccccc3F)C2=O)cc1 (configuration not stated)	inactive: 76%
CCC1CN(C(=O)Nc2cccc(OC)c2)c2ccccc2O1 (configuration not stated)	inactive: 99%
COc1ccc2c(c1)c1c(c(=O)n(-c3ccc(F)c(Cl)c3)c(=O)n1CC(N)=O)n2C	inactive: 72%
CCOc1ccc(-c2c(C)nn3c(C)c(C(=O)NCCc4ccccc4)cnc23)cc1OCC	inactive: 53%
Cn1nc(C(=O)N2CCN(c3ccc(Cl)cc3)CC2)c2c1-c1ccccc1S(=O)(=O)C2	inactive: 66%
COc1ccccc1CNC(=O)CSc1cc(=O)n(C)c2ccccc12	inactive: 83%
COc1ccc(-c2cc(C(F)(F)F)nc(NCc3ccc(Cl)cc3)n2)cc1	active: -3%
CCOc1ccc(Nc2sc(C(=O)c3ccc4c(c3)OCO4)c(N)c2S(=O)(=O)c2ccc(C)cc2)cc1	inactive: 73%
O=C1CC(c2nnc(Cc3cccc(Cl)c3)o2)CN1c1ccccc1 (configuration not stated)	inactive: 113%
CCOc1ccc(C2C(C(=O)Nc3ccccc3OC)=C(C)Nc3c(C(=O)Nc4cccc(C)c4)cnn32)cc1 (configuration not stated)	inactive: 78%
CN(C)CCNc1ncnc2ccccc12	inactive: 107%
Cc1ccc2c(c1)cc1c(=O)n(Cc3ccc(Cl)cc3)nc(C)n12	inactive: 97%
COc1cccc(-c2cc(C(=O)Nc3ccc(Br)c(C)c3)[nH]n2)c1	inactive: 85%
COc1ccc(-n2c(=O)c3ccc(C(=O)NCc4ccc(C)cc4)cc3n(Cc3cccc(Cl)c3)c2=O)cc1	inactive: 74%
COc1ccc(CN(Cc2ccco2)C(=O)c2ccccc2F)cc1	inactive: 82%
Cc1cccc(C)c1NS(=O)(=O)c1ccc2c(c1)[C@H]1C=CC[C@H]1[C@@H](c1ccc(Cl)cc1)N2	inactive: 69%
CCn1c(CC2C(=O)Nc3ccccc32)nc2ccccc2c1=O (configuration not stated)	inactive: 81%
CC1CCN(c2oc(-c3cccs3)nc2S(=O)(=O)c2ccccc2)CC1	inactive: 24%

Structure (SMILES)	survival
CCCC(=O)Nc1c(C)nn(C(=O)CCC)c1C	inactive: 108%
O=C1C(c2ccccc2)NC(=S)N1C1CCCCC1 (configuration not stated)	inactive: 115%
CCOc1ccc(CNC(=O)C2CCN(c3nc4ccccc4nc3C(F)(F)F)CC2)cc1OC	inactive: 73%
CCc1c(C)sc2c1CCN(Cc1ccccc1C#N)C2c1ccccc1 (configuration not stated)	inactive: 124%
COc1ccc(CCNC(=O)c2cnc3sc(N4CCOCC4)nn3c2=O)cc1	inactive: 80%
O=c1[nH]c2cc3[nH]c(=O)c(=O)c3cc2c1=O	inactive: 106%
CCOC(=O)c1cnc2c(ccc3ccccc32)c1Nc1cccc(Cl)c1	inactive: 23%
Cc1nn(C)c2c1c(-c1ccccc1)cc(=O)n2Cc1ccc(F)cc1	inactive: 124%
COc1ccc(-n2nc3ccc(NC(=O)c4cccc(OCCC(C)C)c4)cc3n2)cc1	inactive: 135%
COc1ccc(-n2cc(-c3ccc4c(c3)OCO4)n(CC(=O)Nc3cc(Cl)ccc3C)c2=O)cc1	inactive: 89%
CCOC(=O)c1cnc2ccc(OC)cc2c1Nc1ccc(OCc2ccccc2Cl)cc1	active: 6%
Cc1ccc(NC(=O)CCC(=O)N2Cc3ccccc3Oc3ncccc32)cc1Cl	inactive: 82%
COc1ccccc1CNC(=O)C(NS(=O)(=O)c1ccc2c(c1)CCN2C(C)=O)C(C)C (configuration not stated)	inactive: 75%
COc1ccc(CNC(=O)c2cnc(N3CCCC3)nc2C)c(OC)c1	inactive: 70%
COc1ccc(C)cc1NC(=O)c1nnn(Cc2cccc(Br)c2)c1N	inactive: 102%
COc1ccc(C2=NS(=O)(=O)N(C)C(C(=O)NC(C)c3ccccc3)=C2)cc1 (configuration not stated)	inactive: 78%
N#Cc1cn(CC(=O)Nc2ccccc2C(F)(F)F)c2ccccc12	inactive: 100%
COc1ccc(-c2nc3sc(CCNC(=O)Cc4ccccc4)c(C)n3n2)cc1	inactive: 135%
CCN(C(=O)CSc1nc2ccccc2n1CC(=O)N(C)C1CCCCC1)c1ccccc1	inactive: 133%

Structure (SMILES)	survival
O=C1CC(C(=O)NCCc2ccccc2)C2(CCCCC2)O1 (configuration not stated)	inactive: 103%
CCOC(=O)c1cc(-c2ccccc2)n(CCC(=O)NCCc2ccccc2)c1C	active: -2%
CC1=C(C(=O)OC2CCCC2)C(c2ccc(C)o2)C2=C(CCCC2=O)N1 (configuration not stated)	inactive: 104%
CCN(CC)S(=O)(=O)c1ccc2c(c1)N(CC(=O)NCCCN1CCN(c3ccc(OC)cc3)CC1)C(=O)CO2	inactive: 78%
Cc1ccc2oc(C(=O)Nc3ccc(S(=O)(=O)N4CCCCC4C)cc3)cc(=O)c2c1 (configuration not stated)	inactive: 86%
CCCS(=O)(=O)N1CCC(n2c(C)nc3cccnc32)CC1	inactive: 79%
CCc1ccc(C(=O)c2cn(CC(=O)Nc3cc(OC)ccc3OC)c3ccc(Cl)cc3c2=O)cc1	inactive: 77%
CC(=O)N1CCc2c(sc3c2c(=O)n(-c2ccccc2Cl)c(=O)n3Cc2cccc(C)c2)C1	inactive: 81%
CC(C)(C)C1CCc2c(sc(NC(=O)c3noc4c3CCCC4)c2C#N)C1 (configuration not stated)	inactive: 89%
COc1ccccc1NC(=O)CSc1cn(CC(=O)N2CCCC2)c2ccccc12	inactive: 96%
CC(=O)c1cccc(NC(=O)CCc2c(C)nc3nc(CN)nn3c2C)c1	inactive: 84%
CCOC(=O)N1CCN(Cc2nc3cc(NC(=O)c4ccccc4Cl)ccc3n2C(C)C)CC1	inactive: 94%
O=C(c1ccco1)N1CCN(C2CC(=O)N(c3ccc(F)c(Cl)c3)C2=O)CC1 (configuration not stated)	inactive: 91%
N#Cc1ccc(NC(=O)CNCC2CCCCC2)cc1	inactive: 103%
CCOC(=O)c1ccc(NC(=O)N2CC3CCCN3c3ccccc32)cc1 (configuration not stated)	inactive: 112%
Cc1ccc2nc(-c3cccs3)c(Nc3ccc4c(c3)OCCO4)n2c1	inactive: 124%
CCC1CCCCN1C(=O)CSc1nnc(-c2ccc(OC)c(OC)c2)o1 (configuration not stated)	inactive: 75%
CCC(=O)N1CCc2cc(S(=O)(=O)NCc3ccc(C)cc3)ccc21	inactive: 82%
COc1ccc(Cl)cc1Nc1ccc2cc(S(=O)(=O)N3CCCCC3)ccc2n1	inactive: 59%
